Measured values reported in patent US10604555B2, “GIP derivatives and uses thereof” (priority 2018, dated 2020).
At least one structure is not confirmed: it was looked up by name or label, or the drawing left a doubt. Marks after values point to notes of the source that are not given here.

Tests used:
[1] = Chemical stability: HMWP formation by SEC-MS; assay type: physicochemical; settings: 37° C., 4 weeks, 250 μM, pH 7.4
Outline: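 GIP derivative compositions were freshly prepared and pH-adjusted with NaOH/HCl. %HMWP (covalent oligomers) was followed over time by SEC with UV at 215 nm and positive-mode QToF MS (m/z 100–4000), using MaxEnt deconvolution. Purity loss was measured by LCMS.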

[2] = Chemical stability: purity loss by LCMS; assay type: physicochemical; settings: 37° C., 4 weeks, 250 μM, pH 7.4
Outline: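 GIP derivative compositions prepared fresh, pH adjusted with NaOH/HCl; purity loss followed by LCMS with column at 55° C, UV detection at 215 nm and ESI high-resolution ToF MS (m/z 100-2000). HMWP formation over time tracked separately by SEC-MS.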

[3] = test system: diet-induced obese (DIO) mice; assay: Sub-chronic in vivo study in obese mice: IPGTT (intraperitoneal glucose tolerance test); set-up: species or system C57BL/6J mice
Text: (§1) The purpose of this example is to assess the in vivo effect of the GIP derivatives of the present invention alone and in combination with a GLP-1 receptor agonist on food intake, body weight, and glucose tolerance in diet-induced obese (DIO) mice. The GLP-1 receptor agonist used for this example was a semaglutide-like molecule that has the same pharmacological properties as semaglutide, but a slightly different structure. The compound may be synthesised using methods known in the art, e.g. as described by methods of present Example 1 or as described in WO 2006/097537, example 4.
(§2) The animals were treated once daily with the GLP-1 receptor agonist (compound no. 47) and/or a GIP derivative of the present invention exemplified by compound no.'s 5, 25 and 31, to assess weight loss, efficacy and glucose tolerance. Animals and Diet
All animal protocols were approved by an Institutional Animal Care and Use Committee and Ethical Review Committee of Novo Nordisk. […]
On the day of the glucose tolerance test (day 15), animals were fasted for 4 h. […] Tail blood glucose levels were measured and mice were injected (t=0) with an intra-peritoneal (i.p.) glucose load of 2 g/kg (200 mg/ml glucose solution, dose volume 10 ml/kg). Tail blood glucose levels were measured at times 0, 15, 30, 60, 90, 120 minutes following the i.p. glucose load. […]

[4] = test system: diet-induced obese (DIO) mice; assay: Sub-chronic in vivo study in obese mice: food intake and body weight; set-up: species or system C57BL/6J mice
Text: as §1, §2
All animal protocols were approved by an Institutional Animal Care and Use Committee and Ethical Review Committee of Novo Nordisk. Animals were housed according to Novo Nordisk rodent housing standards, and were given ad libitum access to food and water under controlled lighting (12 h:12 h light/dark cycle; lights off 18:00-06:00), temperature (23±2° C.) and relative humidity (50±20%) conditions. DIO male C57BL/6J mice maintained on a high fat diet (45% kcal fat, RD12451, Research Diets, New Brunswick, N.J., USA) for 22 weeks were obtained from Charles River (France). Upon arrival, the mice were single-housed (one mouse per cage) and allowed to acclimate to their new environment for two weeks prior to the start of treatment.
Prior to initiation of the study, animals were single-housed and acclimated to handling for 7 days. The DIO mice were distributed into groups (n=8/group) such that statistical variations in the mean and standard deviations of fat mass and body weight were minimized between groups. Animals were dosed once daily, subcutaneously with either vehicle or test compound.
All compounds in the study were formulated in the following buffer: 50 mM phosphate; 70 mM sodium chloride; 0.05% polysorbate 80, pH 7.4. Dosing solutions were formulated in glass vials and stored at 2-8° C. Dosing solutions were brought to room temperature before dosing and returned to 2-8° C. after dosing.
Body weight (BW) and food intake were measured immediately prior to dosing each day. The average starting body weight of the mice prior to start of treatment was 45.2±0.2 grams.

[5] = Dynamic Light Scattering Stability Index (DLS-SI); assay type: physicochemical; settings: 250 μM, pH 7.4, 4 weeks at 25° C.
[6] = DIO mice, Tables 6-8, compound 47 2 nmol/kg, GIP derivatives 30 nmol/kg
[7] = Study 1, once daily s.c., 47 2 nmol/kg and/or 5 30 nmol/kg, mean ± SEM

CCCC[C@H](NC(=O)[C@H](C)NC(=O)[C@@H](NC(=O)[C@H](CO)NC(=O)[C@H](Cc1ccc(O)cc1)NC(=O)[C@H](CC(=O)O)NC(=O)[C@H](CO)NC(=O)[C@@H](NC(=O)[C@H](Cc1ccccc1)NC(=O)[C@@H](NC(=O)CNC(=O)[C@H](CCC(=O)O)NC(=O)C(C)(C)NC(=O)[C@@H](Cc1ccc(O)cc1)NC(C)=O)[C@@H](C)O)[C@@H](C)CC)[C@@H](C)CC)C(=O)N[C@@H](CC(=O)O)C(=O)N[C@@H](CCCCN)C(=O)N[C@H](C(=O)N[C@@H](CCCNC(=N)N)C(=O)N[C@@H](CCC(N)=O)C(=O)N[C@@H](CCC(N)=O)C(=O)N[C@@H](CC(=O)O)C(=O)N[C@@H](Cc1ccccc1)C(=O)N[C@H](C(=O)N[C@@H](CCCCNC(=O)CC[C@H](NC(=O)CC[C@H](NC(=O)CC[C@H](NC(=O)CCCCCCCCCCCCCCCCC(=O)O)C(=O)O)C(=O)O)C(=O)O)C(=O)N[C@@H](Cc1c[nH]c2ccccc12)C(=O)N[C@@H](CC(C)C)C(=O)N[C@@H](CC(C)C)C(=O)N[C@@H](C)C(=O)N[C@@H](CCC(N)=O)C(=O)N[C@@H](CCCCN)C(=O)NCC(=O)O)C(C)C)[C@@H](C)CC [Compound 5, N{1}-acetyl, N{Epsilon-24}-[(4S)-4-carboxy-4-[[(4S)-4-carboxy-4-[[(4S)-4-carboxy-4-(17-carboxyheptadecanoylamino)butanoyl]amino]butanoyl]amino]butanoyl]-[D-Tyr1,Aib2,Nle14,Arg18, Lys24]-hGIP(1-31)]
HMWP formation (%/month) [1]: 0.15 %/month
Purity loss (%/month) [2]: 2.89 %/month
effect on glucose tolerance (in words) [3, 6]: improved glucose tolerance
iAUC, IPGTT (mM*min) Day 15 ([3]; Study 1, i.p. glucose 2 g/kg, 4 h fasted, 47 2 nmol/kg and/or 5 30 nmol/kg, baseline subtracted AUC, mean ± SEM): 812 ± 141 ^a mM*min
effect on body weight (in words) [4, 6]: minor body weight loss
effect on food intake (in words) [4, 6]: minor effect on food intake
Cumulative food intake (kcals) Day 14 ([4]; Study 1, DIO mice, once daily s.c., compound no. 47 2 nmol/kg and/or compound no. 5 30 nmol/kg, mean ± SEM): 181.6 ± 8.1 ^b kcals
Absolute BW (grams) Day 0 ([4]; Study 1, Day 0 (before treatment), mean ± SEM): 43.9 ± 1.1 ^a grams
Absolute BW (grams) Day 14 [4, 7]: 42.2 ± 1.1 ^ab grams
Change in BW (%) Day 14 [4, 7]: −3.8 ± 3.4 ^b %
DLS-SI Dimensionless [5]: 1.1
DLS-SI precipitates [5]: No
